Experimental data as given in PubChem BioAssay AID743279 (National Center for Advancing Translational Sciences (NCATS), 2014).
Screen size: about 360,000 compounds; about 17,000 (4.7%) were called active. The inconclusive results got no clear call from the source; some entries with a clear call stand among them for comparison. Rule as the data show it: active = activity change below about -50%; inconclusive = mostly about -30% to -49%; inactive = weaker than that.

Assay: qHTS for Inhibitors of Inflammasome Signaling: IL-1-beta AlphaLISA Primary Screen
Details: THP-1 LPS/ATP IL-1B secretion, 16 h; at 57.5 µM, stronger effect = lower value
In short: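 THP-1 cells pretreated 1 hr with compounds (up to 57.5 uM final), then stimulated with LPS (250 ng/mL final) plus ATP (1.25 mM final); secreted IL-1B measured by AlphaLISA after 16 hr, decreased signal indicating inhibition.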
% is scaled to controls: 0 for no effect and ±100 for the full control effect.

SMILES | activity change
Nc1c(Cl)cc(-c2csc(NC(CO)c3nc4ccccc4n3CCOCCO)n2)cc1Cl (configuration not stated) | inconclusive: -30.7%
CC1(C)CC(=O)c2c(O)cc(OCC(=O)N3CCN(c4ccccc4)CC3)cc2O1 | inconclusive: -45.5%
Fc1ccc(N2CCN(C(c3cccs3)c3nnnn3C3CCCC3)CC2)cc1 (configuration not stated) | active: -68.3%
CCCCc1cc(=O)oc2cc(C)cc(OC(C)C(=O)NCc3cccnc3)c12 (configuration not stated) | inconclusive: -48.6%
CCOc1ccc(CNCc2ccccc2Cl)cc1 | inconclusive: -43.5%
COc1nc(-c2ccncc2)nc2ccccc12 | inactive: -29.9%
COc1ccc(CN(C)C(=O)CC(c2ccccc2)c2ccccc2)cc1 | inconclusive: -39.6%
CCOc1cc2[nH]c(=S)n(Cc3ccc(C(=O)NCCN(CC)CC)cc3)c(=O)c2cc1OCC | active: -98.5%
C=CCOc1ccc2c(c1)C(=NO)c1cc(OCC=C)ccc1-2 | inconclusive: -41.3%
CCOC(=O)c1c(C)[nH]c(C)c1S(=O)(=O)NCC1CCN(Cc2ccccc2OC)CC1 | inconclusive: -44.1%
COc1ccc(CCNC(=O)CN(C)S(=O)(=O)c2ccc3nc(C)sc3c2)cc1OC | inconclusive: -31.4%
CCOc1cc(C2NC(=O)NC(c3ccccc3)=C2C(C)=O)ccc1OC(C)=O (configuration not stated) | inactive: 2%
Cc1cc(C(F)(F)F)nn1CC(=O)NCc1ccccc1 | inconclusive: -30.7%
Cc1cccc(C(=O)NNC(=O)c2ccc(-c3ccccc3)cc2)c1 | inactive: -2.05%
Cc1cc(NS(=O)(=O)c2ccc(NC(=O)c3cc(-c4cccnc4)nc4ccc(Cl)cc34)cc2)no1 | inactive: 39.4%
CC(C)C(N)c1csc(NC(=O)Nc2ccc(OC(F)(F)F)cc2)n1 (configuration not stated) | active: -70.4%
CC1CN(C)C(C)CC1OC(=O)C(c1ccccc1)c1ccccc1 (configuration not stated) | inconclusive: -32.8%
COC(=O)[C@@H](NC(=O)N(C1CCCCC1)C1CCCCC1)C(C)C | inactive: -4.89%
Cc1ccc(NC(=O)CN2C(=O)NC(C)(CCc3ccccc3)C2=O)cc1 (configuration not stated) | inconclusive: -49.9%

SMILES | activity change
COc1ccc(C(=O)/C=C/c2ccc(OC)c(COc3ccc(F)cc3)c2)cc1 | active: -93.3%
CC(C)C(=O)NC(CC(=O)O)c1ccccc1 (configuration not stated) | inactive: 7.11%
Oc1ccc(C23CC4CC(CC(C4)C2)C3)cc1O | inconclusive: -37.7%
CN1CCCN(Cc2nc(-c3ccc(Cl)cc3)no2)CC1 | inconclusive: -31.1%
CCC(Cc1ccccc1)NC(=O)C1CCC(CNc2c(N3CCCC3)c(=O)c2=O)CC1 (configuration not stated) | inactive: -12%
O=C(Nc1cc(C(=O)N2CCCC2)ccc1N1CCCC1)c1ccccc1 | inconclusive: -40.3%
O=C(O)c1ccc(CNC(=O)c2ccc3c(c2)C(=O)N(Cc2cccnc2)C3=O)cc1 | inconclusive: -40.2%
Cc1ccc(/C=N/NC(=O)c2cc3c(ccc4ccccc43)o2)o1 | active: -61.4%
COc1ccc(Cn2cccc(NC(=O)Nc3cccc(OC)c3)c2=O)cc1 | inconclusive: -38.9%
Cc1ccc(/C=C2\SC(=O)N(CCNC(=O)C3CSC4(C)CCC(=O)N34)C2=O)cc1 (configuration not stated) | inconclusive: -38.9%
CN1CCN(c2ccccc2/C=C2/C(=O)Nc3ccccc32)CC1 | inconclusive: -47.7%
NNC(=O)CN1C(c2ccc(Br)cc2)=Nc2ccc(Br)cc2C1c1ccccc1 (configuration not stated) | inconclusive: -32.9%
CCC(=O)Nc1ccc(NC(=S)NC(=O)/C=C/c2ccccc2)cc1 | inconclusive: -40.3%
Nc1sc(Cc2ccccc2)cc1C(=O)NC1CCCCC1 | inactive: -18%
CN1CCN(c2ncnc3scc(-c4ccccc4Cl)c23)CC1 | inconclusive: -41.3%
Cc1ccc(NC(=O)CN(C)Cc2ccc(Cl)cc2)cc1 | inconclusive: -32.5%
O=C(Nc1ccncc1)Nc1ccc(F)cc1 | inconclusive: -42%
CC[C@@H]1CC2=C(C(=O)OC(C)(C)O2)[C@@H](c2ccc(Cl)cc2)O1 | inactive: 9.43%
O=C(c1nn2c(C(F)(F)F)cc(-c3ccccc3)nc2c1Cl)N1CCN2CCCC2C1 (configuration not stated) | active: -64.3%

SMILES | activity change
O=C(NCCOc1ccc(F)cc1)c1ccccc1SCc1ccccc1 | active: -108%
CCn1c(SCC(=O)Nc2sc3c(c2C(N)=O)CCC(C)C3)nnc1-c1ccco1 (configuration not stated) | inconclusive: -38.5%
COC(=O)C1=C(C)Nc2c(c(=O)n(C)c(=O)n2C)C1c1cccs1 (configuration not stated) | inactive: 0.608%
CC(=O)C1=C(C)Nc2ncnn2C1c1ccccc1 (configuration not stated) | inactive: -1.76%
CC(=O)c1ccc(OCC(O)CN2CCN(S(=O)(=O)c3c(C)cc(C)cc3C)CC2)cc1 (configuration not stated) | inactive: 17.3%
COc1ccc(CC(=O)NCC2CCCN(Cc3cc(OC)cc(OC)c3)C2)cc1 (configuration not stated) | active: -50.4%
COc1cc(OC)cc(C(=O)Nc2cccc3cccnc23)c1 | inconclusive: -49.1%
O=C(Cc1ccc(NC(=O)C2CCN(C(=O)C3CCC3)CC2)cc1)Nc1ccc(C(=O)N2CCOCC2)cc1 | inconclusive: -42%
O=C(O)Cc1csc(-c2cccc(F)c2)n1 | inactive: 16%
CCC1CCC(NC(=O)Nc2cccc(OC)c2)CC1 (configuration not stated) | inactive: -14.2%
COc1cc(/C=N/n2cnnc2)ccc1Oc1nc(Cl)ncc1F | inactive: -18%
O=C1c2ccccc2[C@@H]2Cc3csc[n+]3[C@H]12 | inconclusive: -49.6%
CCNCCNc1ccc(Cl)cc1[N+](=O)[O-] | inconclusive: -30.8%
O=C(N/N=C/c1ccc(-c2ccccc2[N+](=O)[O-])o1)c1cncc(Br)c1 | inconclusive: -47.7%
COc1ccc(C2=NN(C(=O)c3cccs3)C(c3ccc(OC)cc3)C2)cc1 (configuration not stated) | inconclusive: -32.2%
C[n+]1c(/C=C/c2ccc(O)cc2)ccc2ccccc21 | inconclusive: -44.6%
O=[N+]([O-])c1cc(C(F)(F)F)ccc1NCCNC(=S)Nc1ccc(Cl)cc1 | active: -88.3%
N#CC1=C(N)NC(SCC(=O)c2ccc(Cl)cc2)=C(C#N)C12CCCC2 | active: -72.1%
CC(C)Cn1c(N)c(C(=O)COC(=O)c2ccc(Br)cc2)c(=O)n(C)c1=O | inconclusive: -40.1%
